Source: the supplement of paper PMC8047034
Where a name gives a salt, the structure may show the parent alone. This is one part of the list. Most values come without repeats; read them as rough.

Experiments:
[1] = tested on: OVCAR4; test: log2 surviving fraction (library drug vs vehicle, or drug + carboplatin vs carboplatin alone; relative to plate median); ovarian cancer lines: OVCAR4 is platinum-sensitive and Ov4Carbo platinum-resistant; higher = more cell survival; conditions: library drug concentration 10 µM, 7 days
[2] = tested on: Ov4Carbo; test: as above; conditions: library drug concentration 10 µM, 7 days

Row | SMILES | log2 surviving fraction ([1]; carboplatin co-treatment 0 µM) | log2 surviving fraction ([1]; carboplatin co-treatment 5 µM) | log2 surviving fraction ([2]; carboplatin co-treatment 0 µM) | log2 surviving fraction ([2]; carboplatin co-treatment 5 µM)
1 | CCCSc1nc(N[C@@H]2C[C@H]2c2ccc(F)c(F)c2)c2nnn([C@@H]3C[C@H](OCCO)[C@@H](O)[C@H]3O)c2n1 [Ticagrelor] | -0.754 | -0.156 | -2.14 | -3.64
2 | Cc1cccc(N(C)C(=S)Oc2ccc3ccccc3c2)c1 [Tolnaftate] | 0.792 | -0.17 | 0.653 | -1.03
3 | O=C(O)[C@H](CC(=O)N1C[C@H]2CCCC[C@H]2C1)Cc1ccccc1 [Mitiglinide calcium] | 0.313 | 1.03 | 1.9 | 1.39
4 | CC(=O)Oc1ccccc1C(=O)Nc1ncc([N+](=O)[O-])s1 [Nitazoxanide (Alinia, Annita)] | -0.524 | -0.244 | 0.585 | -0.948
5 | CC(=O)O[C@]1(C(C)=O)CC[C@H]2[C@@H]3C[C@H](C)C4=CC(=O)CC[C@]4(C)[C@H]3CC[C@@]21C [Medroxyprogesterone acetate] | 0.83 | 0.636 | 1.54 | 1.18
6 | CCCCCCCCCCCCCCCC[N+](C)(C)CCN(Cc1ccc(OC)cc1)c1ncccn1 [Thonzonium Bromide] | -9.13 | -7.89 | -8.36 | -7.46
7 | COc1cc2c(cc1Cc1cccc(Cl)c1F)c(=O)c(C(=O)O)cn2[C@H](CO)C(C)C [Elvitegravir (GS-9137)] | -1.58 | 0.68 | 0.0235 | 0.718
8 | N=C(N)NC(=N)NCCc1ccccc1 [Phenformin hydrochloride] | -0.672 | -0.336 | -0.923 | -0.0141
9 | CO/N=C(\C(=O)N[C@@H]1C(=O)N2C(C(=O)O)=C(CSC(=O)c3ccco3)CS[C@H]12)c1csc(N)n1 [Ceftiofur hydrochloride] | -0.112 | 0.0419 | 0.129 | 0.336
10 | NC(=O)c1ncn([C@@H]2O[C@H](CO)[C@@H](O)[C@H]2O)c1N [Acadesine] | 0.328 | 0.57 | 0.717 | 0.825
11 | C=C1CC[C@H](O)C/C1=C/C=C1\CCC[C@]2(C)[C@@H]([C@H](C)/C=C/[C@H](C)C(C)C)CC[C@@H]12 [Vitamin D2] | -0.23 | 0.298 | 0.675 | 1.1
12 | CNC(=O)CN(CCN(CCN(CC(=O)O)CC(=O)NC)CC(=O)O)CC(=O)O.O.[Gd] [Gadodiamide (Omniscan)] | 0.274 | 0.983 | -0.204 | 0.243
